The text below walks through data of publication PMC6919601, “Identification of Plasmodium dipeptidyl aminopeptidase allosteric inhibitors by high throughput screening” (PLoS ONE, 2019).

Structures are written as SMILES. In all, about 110,000 compounds went through this assay and about 230 (0.21%) showed an effect of 50% or more. Some of the results follow.
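Note: 30 min substrate incubation versus DMSO and 10 µM JCP410 controls.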

This experiment deals with DPAP1 (Plasmodium falciparum, UniProt Q8IIJ9). As to the kind of experiment: primary screen, percent inhibition; read by cleavage of a fluorogenic dipeptide substrate; higher = more effect of the substance. Further details: species or system P. falciparum D10 trophozoite lysates; single well.
Chain of DPAP1 (Q8IIJ9 whole entry, looked up): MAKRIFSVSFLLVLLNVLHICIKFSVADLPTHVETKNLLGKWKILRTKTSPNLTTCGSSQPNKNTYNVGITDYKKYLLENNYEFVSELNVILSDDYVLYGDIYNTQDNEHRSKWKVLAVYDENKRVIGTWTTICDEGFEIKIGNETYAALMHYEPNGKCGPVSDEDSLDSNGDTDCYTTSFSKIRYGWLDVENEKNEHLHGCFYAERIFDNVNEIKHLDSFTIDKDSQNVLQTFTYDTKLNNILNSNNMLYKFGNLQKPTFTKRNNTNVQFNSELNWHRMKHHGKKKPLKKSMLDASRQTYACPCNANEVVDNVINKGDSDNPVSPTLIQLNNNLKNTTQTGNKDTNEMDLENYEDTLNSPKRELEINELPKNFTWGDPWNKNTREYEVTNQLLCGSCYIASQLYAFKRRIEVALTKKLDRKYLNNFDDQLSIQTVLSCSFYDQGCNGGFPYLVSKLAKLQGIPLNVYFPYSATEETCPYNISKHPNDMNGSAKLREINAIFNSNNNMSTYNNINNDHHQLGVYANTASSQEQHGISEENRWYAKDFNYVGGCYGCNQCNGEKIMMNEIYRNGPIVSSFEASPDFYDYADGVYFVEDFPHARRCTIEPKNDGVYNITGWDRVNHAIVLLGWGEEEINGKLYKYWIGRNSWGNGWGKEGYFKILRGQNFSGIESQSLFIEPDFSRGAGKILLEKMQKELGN
With `O=C1c2nccnc2C(=O)N1c1cccc2ccccc12`, the “% Inhibition @ 10 uM” value was found to be 1.66%.
For `Cc1nc2ccc(C(=O)NCc3ccccc3)cc2s1`, the “% Inhibition @ 10 uM” value is given as 2.4%.
The result for `O=C1NC(=O)/C(=C\c2cc(Br)ccc2OCc2ccc(C(=O)O)cc2)N1` reads 6.89%; that for `COc1cc(OC)c(CN2CCCC(O)C2)cc1Br` (centres unmarked), -3.56%; that for `CCn1c(/C=C/c2ccc(OC)cc2)nc2ccccc21`, -7.09%.
The result for `Cc1ccc(-c2cn3nc(N4CCC(C(=O)NCCN(C)C)CC4)sc3n2)cc1` reads -3.6%; that for `CC(C)CCNC(=O)CN1CCN(Cc2ccc(F)cc2Cl)C1=O`, -4.53%; that for `COc1ccc(CNC(=O)CCN2C(=O)C3C4C=CC(CC4)C3C2=O)cc1` (centres unmarked), 8.84%.
The result for `Cc1cccc(NC(=O)CN2C(=O)N/C(=C/c3cc(C)n(-c4ccncc4)c3C)C2=O)c1` reads 14.8%; that for `CCOC(=O)c1sc2nc3c(cc2c1N)COC(C)(CC)C3` (centres unmarked), 9.55%.
For the compound `CCOc1ccc(C2c3c(oc4ccccc4c3=O)C(=O)N2c2nc(C)c(C)s2)cc1` (centres unmarked), the “% Inhibition @ 10 uM” value was -1.86%.
The result for `Cc1ccc(N2C(=O)c3cccc([N+](=O)[O-])c3C2=O)cc1` reads -6.52%; that for `O=C(Nc1nccs1)c1ccc(COc2ccccc2Cl)o1`, -5.98%.
Take `c1ccc(-c2noc(CSc3nnc(COc4ccc5c(c4)OCO5)n3-c3ccccc3)n2)cc1`: the “% Inhibition @ 10 uM” value is -3.75%.
The result for `O=C(NCCCN1CCOCC1)c1cccc(F)c1` reads -7.45%; that for `Oc1ccc(CN2CCN(C/C=C/c3ccccc3)CC2)cc1`, -1.07%; that for `O=C(COc1ccc(S(=O)(=O)NC2CCCCC2)cc1)NCc1ccc(Cl)cc1`, 0.64%.
For the compound `Cc1nc2ccccc2nc1N1CCN(C)CC1`, the “% Inhibition @ 10 uM” value is on record as -0.711%.
The result for `CC(C1CC1)N(C(=O)c1ccc(NC(=O)Nc2ccccc2Cl)cc1)c1ccccc1` (centres unmarked) reads -1.15%.
The result for `CC(=O)C1=C(O)C(=O)N(CC#N)C1c1cccnc1` (centres unmarked) reads 0.83%.
For `CCCC1=C(C(=O)OCC)C(c2ccc(Cl)cc2)C(C#N)=C(N)O1` (centres unmarked), the “% Inhibition @ 10 uM” value is recorded as -0.197%.
The result for `CCOc1cc(/C=C2\C(=O)N(CCC3=CCCCC3)C(C)=C2C(=O)OC)ccc1O` reads 0.222%.
As for `Cc1cc(C)n(CC(O)CN2c3ccccc3Sc3ccccc32)n1` (centres unmarked), the “% Inhibition @ 10 uM” value was 3.72%.
Take `CCN1CCN(C(c2cccs2)C(C)NC(=O)c2ccc3c(c2)OCO3)CC1` (centres unmarked): the “% Inhibition @ 10 uM” value is given as -2.88%.
The result for `O=c1/c(=C/c2ccccc2F)sc2nc3ccccc3n12` reads 5.98%; that for `CC(C)NC(=O)c1ccc(-n2c(-c3ccccc3)nc3cccnc32)cc1`, 0.775%; that for `Cc1nn(CCCC(=O)NC2CCCc3ccccc32)c(=O)c2nccn12` (centres unmarked), 0.0882%.
For `O=C(O)c1ccccc1C(=O)Nc1ccc(S(=O)(=O)N2CCCCC2)cc1`, the “% Inhibition @ 10 uM” value is on record as -1.04%.
Regarding `COc1cc(C2CC(=O)NC3=C2C(=O)CC(c2ccccc2Cl)C3)cc(Br)c1O` (centres unmarked), the “% Inhibition @ 10 uM” value was 8.96%.
The result for `COc1ccccc1-c1nc2s/c(=C\c3ccccc3Cl)c(=O)n2n1` reads -8.79%; that for `Clc1ccc(OCCCN2CCCCC2)cc1`, -3.15%; that for `CCOC(=O)c1c(C)n(C)c2ccc(OCC(O)CNCc3ccco3)cc12` (centres unmarked), -3.13%.
The result for `CCc1[nH]nc2c1C(c1cccc(Cl)c1)C(C#N)=C(N)O2` (centres unmarked) reads -3.46%.
The result for `CCOC(=O)C1=C(CS(=O)(=O)c2ccc(C)c(C)c2)NC(=O)NC1c1ccccc1OC` (centres unmarked) reads 5.92%.
`CCN(c1ccccc1)S(=O)(=O)c1ccc(NC(=O)Cc2ccccc2)cc1`: the “% Inhibition @ 10 uM” value was found to be 2.01%.
The result for `Cc1nonc1NC(=O)c1oc2ccc(F)cc2c1C` reads -3.24%.
The result for `COc1cccc(C(=O)NC(C)c2ccc3c(c2)OCCCO3)c1` (centres unmarked) reads 5.39%.
The result for `O=C(Cn1ncc2ccsc2c1=O)NCCN1CCN(Cc2ccccc2)CC1` reads 5.09%; that for `COc1cc(OC)cc(C(=O)NCc2ccc(Cl)c(Cl)c2)c1`, -5.13%.
Turning to `Cc1ccc(-c2nc(C#N)c(NCCCN(C)C)o2)cc1`, the “% Inhibition @ 10 uM” value was found to be 0.315%.
The result for `O=C(Cc1ccc(F)cc1)NCc1nc2ccccc2[nH]1` reads -2.79%.
The result for `NC(=O)c1c(NC(=O)CCn2cnc3ccccc3c2=O)sc2c1CCCC2` reads -7.46%.
The result for `CCOC(=O)C1=C(CS(=O)(=O)c2ccc(Cl)cc2)NC(=O)NC1c1ccc(OCC)cc1` (centres unmarked) reads 5.92%; that for `CC(=O)c1ccc(-c2ccc(/C=c3\sc4nc(-c5ccccc5)nn4c3=O)o2)cc1`, 3.54%.
Consider `CCCNC(=O)CCC(=O)n1ncc2ccc(Cl)cc21`, for which the “% Inhibition @ 10 uM” value is on record as 3.84%.
For the compound `Cc1cc(NC(=O)c2cccnc2)n(Cc2cccc3ccccc23)n1`, the “% Inhibition @ 10 uM” value was -1.24%.
The result for `O=C(NCCc1ccccc1)c1cccs1` reads -2.15%.
For `Cc1ccc(C)[n+](CC(=O)N2CCCCC2)c1`, the “% Inhibition @ 10 uM” value worked out at 5.31%.
The result for `CCc1ccc(C(=O)c2cnc3ccccc3c2O)cc1` reads 6.64%.
The result for `CC(NC(=O)Cn1ncn2c(cc3cc(F)ccc32)c1=O)c1ccc2c(c1)OCCO2` (centres unmarked) reads 1.68%.
